From paper PMC6919601, “Identification of Plasmodium dipeptidyl aminopeptidase allosteric inhibitors by high throughput screening” (PLoS ONE, 2019)
Values joined by “and” are separate entries in the source; they are usually repeats but may differ in a detail not shown here. Identical values can stand only once. Hit rate of the full screen: of about 110,000 compounds, about 230 (0.21%) showed an effect of 50% or more. The list shows a part of the results.

Each compound was assayed against DPAP1 (Plasmodium falciparum, UniProt Q8IIJ9) (assay: primary screen, percent inhibition; read by cleavage of a fluorogenic dipeptide substrate; higher = more effect of the substance).
Parameters: species or system P. falciparum D10 trophozoite lysates; single well
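Further: 30 min substrate incubation versus DMSO and 10 µM JCP410 controls.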

DPAP1, sequence (Q8IIJ9 whole entry, looked up): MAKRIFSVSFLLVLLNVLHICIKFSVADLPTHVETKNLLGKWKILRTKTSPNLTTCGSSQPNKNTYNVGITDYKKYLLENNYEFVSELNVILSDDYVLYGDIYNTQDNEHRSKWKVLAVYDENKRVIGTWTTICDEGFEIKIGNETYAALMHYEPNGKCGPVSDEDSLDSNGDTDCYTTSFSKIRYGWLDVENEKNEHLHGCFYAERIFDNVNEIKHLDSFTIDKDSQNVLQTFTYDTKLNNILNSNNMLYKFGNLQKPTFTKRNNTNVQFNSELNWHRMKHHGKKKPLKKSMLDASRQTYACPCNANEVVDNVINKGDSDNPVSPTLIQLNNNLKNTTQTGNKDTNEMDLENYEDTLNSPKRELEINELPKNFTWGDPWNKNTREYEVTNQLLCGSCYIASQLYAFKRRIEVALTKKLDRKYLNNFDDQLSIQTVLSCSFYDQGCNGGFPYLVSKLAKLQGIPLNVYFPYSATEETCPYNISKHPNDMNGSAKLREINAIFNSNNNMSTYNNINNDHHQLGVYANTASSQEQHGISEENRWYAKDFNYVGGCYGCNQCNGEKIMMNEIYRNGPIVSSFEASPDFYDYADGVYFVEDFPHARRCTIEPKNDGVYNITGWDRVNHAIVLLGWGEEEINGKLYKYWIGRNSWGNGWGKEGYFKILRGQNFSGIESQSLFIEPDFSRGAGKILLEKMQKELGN

Row | SMILES | % Inhibition @ 10 uM
1 | Cc1ccnc(NC(=O)c2ccccc2NC(=O)C(C)(C)C)c1 | 4.44%
2 | O=C(C1=C(Nc2ccccc2)c2ccccc2S(=O)(=O)N1)c1ccccc1 | 2.38%
3 | O=C(c1ccc(COc2cc(Cl)ccc2Cl)o1)N1CCSCC1 | 2.32%
4 | COc1ccc(OCc2nn3c(C4COc5ccccc5O4)nnc3s2)cc1 (stereo not shown) | 4.47%
5 | O=C(O)C1C2C=CC(O2)C1C(=O)NCCCN1CCOCC1 (stereo not shown) | -2.22%
6 | Cc1noc(C(=O)NCc2ccccc2)c1Cl | 3.2%
7 | Cc1ccc2nc(N(CCN(C)C)C(=O)CCS(=O)(=O)c3ccccc3)sc2c1 | -5.88%
8 | Cc1nc2nc(C)c(CCC(=O)NCc3ccc(F)cc3)c(C)n2n1 | -4.1%
9 | Cc1ccc(S(=O)(=O)NCCCCCC(=O)Nc2ccccn2)cc1 | 2.32%
10 | CNC(=O)c1c(NC(=O)c2cc(=O)c3ccc(C)cc3o2)sc2c1CCCC2 | 0.248%
11 | CC1CCc2c(sc(NC(=O)C3CCCO3)c2C(N)=O)C1 (stereo not shown) | -7.19%
12 | Cc1cccc(CNC(=O)C2CCCN2c2nn3c(=O)cc(C)nc3s2)c1 (stereo not shown) | -3.79%
13 | CCCN1C(=O)c2[nH]nc(-c3ccc(OC)cc3)c2C1c1cccs1 (stereo not shown) | -6.56%
14 | O=C(CSc1cn(Cc2ccc(F)cc2)c2ccccc12)N1CCCCC1 | 4.65%
15 | CCc1c(C)nc2n(c1=O)C(CS(=O)(=O)c1ccc(C)cc1)CS2 (stereo not shown) | 3.54%
16 | Cc1cc(C)c2ccc(C3=C(O)c4ccccc4C3=O)nc2c1O | 0.266%
17 | Cc1c(Cl)c(C(=O)NCc2ccc(F)cc2)nn1C | -4.75%
18 | O=C(N/C(=C\c1ccc(-c2ccc(F)cc2)o1)C(=O)N1CCOCC1)c1ccccc1 | 2.17%
19 | CCN1CCCC1CNC(=O)c1nn(C)c2c1CSc1ccccc1-2 (stereo not shown) | 1.68%
20 | CCCCSCCCNC(=O)c1ccc(CS(=O)(=O)c2ccccc2)o1 | -1.28%
21 | O=C1CC(c2ccc3c(c2)OCO3)C2=C(CC(c3cccs3)CC2=O)N1 (stereo not shown) | 3.5%
22 | Cc1nnc(N2CCC(C(=O)NCCN3CCOCC3)CC2)c2nn(-c3ccccc3)c(C)c12 | -6.13%

Row | SMILES | % Inhibition @ 10 uM
23 | CN(C)S(=O)(=O)c1ccc(N2CCCC2=O)c([N+](=O)[O-])c1 | 0.989%
24 | Cc1ccc(-c2nc3scc(CCNC(=O)c4ccco4)n3n2)cc1 | 6.56%
25 | COc1ccc(C2=NN(C(=O)CCC(=O)O)C(c3ccccc3OC)C2)cc1 (stereo not shown) | 3.17%
26 | COc1ccc(C(=O)Nc2c(Cl)cc(Cl)cc2C(=O)NCC2CCCO2)cc1 (stereo not shown) | -3.39%
27 | CCCCNC(=O)Nc1nc(C23CC4CC(CC(c5ccc(C)cc5)(C4)C2)C3)cs1 | 2.58%
28 | CCOc1ccccc1NC(=O)CN(c1ccccc1C)S(=O)(=O)c1ccccc1 | -5.69%
29 | CC1CC(C)CN(CCCNC(=O)Cn2ncn3nc(-c4cccs4)cc3c2=O)C1 (stereo not shown) | 2.27%
30 | O=[N+]([O-])c1ccc(N2CCOCC2)cc1OCCc1ccccc1 | 3.18%
31 | COc1ccccc1-c1cc(C(F)F)n2ncc(C(=O)NCC34CC5CC(CC(C5)C3)C4)c2n1 | -4.73%
32 | CCOC(=O)Nc1ccc(-c2ccc(NC(=O)OCC)cc2N)cc1 | 0.245%
33 | Fc1ccc(CN2CCN(C/C=C/c3ccccc3)CC2)cc1Br | 2.23%
34 | c1ccc(N2CCN(c3ncnc4c3nc3n4CCCCC3)CC2)nc1 | 5.38%
35 | COc1ccccc1/C=C(\NC(=O)c1ccc(C)cc1)C(=O)N1CCOCC1 | 1.01%
36 | O=C(NCc1cccnc1)c1c(Cl)cccc1Cl | -1.6%
37 | CC(=O)OCCNC(=O)c1c([N+](=O)[O-])ncn1C | -6.22%
38 | COCCNC(=O)C1CCN(c2nnc(N3CCCC3=O)s2)CC1 | -1.08%
39 | Cc1cc(O)n2nc(-c3ccncc3)nc2n1 | -2.19%
40 | COC(=O)c1cc2ccsc2n1Cc1ccccc1C | -2.34%
41 | CC(=O)Nc1cccc(NC(=O)c2cccs2)c1 | 1.96%
42 | Cc1nc2n(n1)C(c1ccc(Cl)cc1)C=C(c1ccc(Cl)cc1)N2 (stereo not shown) | -3.37%
43 | CCOc1ccccc1N(CC(=O)NC1CC2CCC1C2)S(C)(=O)=O (stereo not shown) | 14.8%
44 | COc1cc(-c2nc3s/c(=C\c4ccc(C)o4)c(=O)n3n2)cc(OC)c1OC | -2.98%

Row | SMILES | % Inhibition @ 10 uM
45 | CN1CCN(C2C3CC4CC(C3)CC2C4)CC1 (stereo not shown) | 0.217% and -1.56%
46 | Cc1ccc(C2CC(c3ccccc3F)n3nnnc3N2)cc1C (stereo not shown) | 1.86%
47 | O=C(CN1CCCCC1)Nc1ccc(OC(F)(F)Cl)cc1 | -2.15%
48 | COc1ccc(OC)c(C2SCCN2S(=O)(=O)c2ccc3ccccc3c2)c1 (stereo not shown) | -3.4%
49 | COc1ccc(-c2nc(SC(C)C)cc(N3CCN(C)CC3)n2)cc1 | 3.24%
50 | COC(=O)c1sc(-c2ccccc2)cc1NC(=O)c1ccc(C)cc1 | -0.447%
51 | O=C(c1cccnc1)N1CCN(Cc2ccccc2Cl)CC1 | -3.03%
52 | C=CCSC(=O)NC(=O)Cc1ccccc1 | -4.3%
53 | O=C(O)C1CCC(N2C(=O)C3CCCCC3C2=O)CC1 (stereo not shown) | 5.58%
54 | CCn1c(C(=O)N2CCC(C(=O)N3CCN(C(=O)c4ccco4)CC3)CC2)cc2sccc21 | -0.0745%
55 | COC(=O)c1c(C)oc2ccc(O)c(CN(C)C3CCN(C)CC3)c12 | -2.99%
56 | CCCCN(C)CCNC(=O)CCn1nc(-c2ccc(C)cc2)ccc1=O | -1.79%
57 | CCCc1ccc(-c2ccc(C#N)c(O)n2)cc1 | 3.32%
58 | CCN(Cc1nc(-c2cccc(C)c2)no1)S(=O)(=O)c1c(C)cc(C)cc1C | 0.758%
59 | COc1ccc(-c2nc(S(=O)(=O)c3ccccc3)c(N3CCOCC3)o2)cc1OC | -1.96%
60 | N#Cc1cc2c(nc1SCc1cccnc1)CCCC2 | -0.68%
61 | C=CCOc1ccc(C(=O)C2=C(O)C(=O)N(CCN(C)C)C2c2ccc(C(C)C)cc2)c(C)c1 (stereo not shown) | 6.27%
62 | CCCCNS(=O)(=O)c1ccccc1[N+](=O)[O-] | -2.44%
63 | CCC(Oc1ccccc1)C(=O)Nc1ccc(Cl)cc1 (stereo not shown) | -3.32%
64 | COc1ccc2[nH]c(C)c(CCNCc3ccc(F)cc3)c2c1 | -10.2%
